Here are results for 24 compounds from PubChem BioAssay AID1346428 (National Center for Advancing Translational Sciences (NCATS), 2018).

“And” between values parts separate entries of the source, which are not always exact repeats. Equal values may be shown once. In all, about 48,000 compounds went through this assay and about 1,200 (2.5%) were called active. Roughly 2% stayed inconclusive and do not appear here.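 Rule for the calls: active = activation of at least 60% and not above a set upper limit (about 1 call in 100 departs from these limits); inconclusive = activation of 40% to 60%, or above that upper limit; inactive = activation under 40%.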 The list shows a part of the results. The source holds several records for some structures; these can differ, active in one and inactive in another.

UniProt O75388, sequence (O75388 whole entry, looked up): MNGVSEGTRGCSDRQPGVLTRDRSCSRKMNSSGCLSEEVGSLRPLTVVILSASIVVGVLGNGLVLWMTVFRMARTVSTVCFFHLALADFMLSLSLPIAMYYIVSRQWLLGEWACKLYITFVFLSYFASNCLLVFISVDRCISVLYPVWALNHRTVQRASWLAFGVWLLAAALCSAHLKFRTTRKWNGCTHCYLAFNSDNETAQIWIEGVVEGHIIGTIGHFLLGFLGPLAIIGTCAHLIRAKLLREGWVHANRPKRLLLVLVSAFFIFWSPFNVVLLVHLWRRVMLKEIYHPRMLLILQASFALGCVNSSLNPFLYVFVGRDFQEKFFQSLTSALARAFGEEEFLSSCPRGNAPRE

This assay deals with Probable G-protein coupled receptor 32 (Homo sapiens) (UniProt O75388). The experiment in a line: qHTS for Agonists of Human Resolvin D1 Receptor DRV1. Note: 0% is about no effect. To be noted: CHO-K1 GPR32 beta-arrestin PathHunter luminescence, 90 min; at 76.9 µM; stronger effect = higher value; zero percent set by DMSO-only wells. A digest of the protocol:
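Step 1: seed CHO-K1 GPR32 beta-arrestin cells, 2,500/well, overnight at 37 °C. Step 2: add compounds, 90 min at 37 °C. Step 3: detection reagent, 1 h ambient, then luminescence.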
A general note: Quantitative high-throughput screening tests each substance at several concentrations.
Take `C[C@@H](N)Cc1cnc[nH]1`: the activation is inactive: 2.3%.

On to `CCCN1CCC[C@@H]2Cc3[nH]ncc3C[C@H]21`, for which the activation was inactive: 5.75% and inactive: -3.72% and inactive: -15.4%.

Consider `Cc1ccccc1CN1C(=O)C(C)N=C(c2ccccc2)c2ccccc21` (centres undefined), for which the activation was inactive: -24%.

`[N-]=[N+]=CC(=O)OC[C@H](N)C(=O)O`: the activation is inactive: 1.29%.

For `CCN(CC)Cc1nccn1-c1ccc([N+](=O)[O-])cc1C(=O)c1ccccc1Cl`, the activation is inactive: -14.5%.

In the case of `COP(=S)(OC)Oc1ccc(S(N)(=O)=O)cc1`, the activation is inactive: -39.5%.

Regarding `COc1cccc2c1C(=O)c1c(O)c3c(c(O)c1C2=O)C[C@@](O)(C(=O)CO)CC3OC1CC(N2CCOC(OC)C2)C(O)C(C)O1` (some centres undefined), the activation was inactive: -51.6%.

`O=C(O)CCCCCCNC1c2ccccc2CCc2ccccc21`: the activation was inactive: 4.18%.

`CCOc1ccc(CN(CCc2ccc3c(c2)OCO3)Cc2ccc(OC)c(Br)c2)cc1`: the activation was inactive: -21.9%.

`CCOc1ccc2nc(NC(=O)c3cccn(Cc4ccccc4Cl)c3=O)sc2c1`: the activation was inactive: 4.31%.

For `COc1ccc(Cc2nccc3cc(OC)c(OC)cc23)cc1OC`, the activation was active: 119% and inactive: 15.7%.

Consider `COc1cccc(NC(=O)c2cccn(Cc3ccccc3C)c2=O)c1`, for which the activation was inactive: 14.3%.

As to `COc1ccccc1C1SCC(=O)Nc2c1c(C)nn2-c1cccc(C)c1` (centres undefined), the activation was inactive: 7.15%.

On to `Cc1ccc(Cn2cccc(C(=O)Nc3ccc4c(c3)OCCO4)c2=O)cc1`, for which the activation is inactive: 1.86%.

For the compound `C[C@H](CN1CCOCC1)C(C(=O)N1CCCC1)(c1ccccc1)c1ccccc1`, the activation is inactive: 17.3%.

As to `Cc1ccc(-c2nc(CN3C(=O)CN=C(c4ccccc4)c4ccccc43)c(C)o2)cc1`, the activation is inactive: -17.9%.

Turning to `CCN(CC)C(=O)c1ccc(NC(=O)c2ccc(-c3nn(C)c(=O)c4ccccc34)cc2)cc1`, the activation was inactive: 9.41%.

Take `CCC1(CC)C(=O)C=CNC1=O`: the activation was inactive: -10.6%.

As for `CNCCc1c[nH]c2ccc(O)cc12`, the activation is inactive: 2.09%.

In the case of `NCCCP(=O)(O)O`, the activation was inactive: -0.767%.

As to `O=C(N/N=C/c1ccc([N+](=O)[O-])o1)c1cc([N+](=O)[O-])cc([N+](=O)[O-])c1O`, the activation was inactive: -36%.

Regarding `Cc1ccc(-c2nn3c(=O)cc(CN4CCN(C(=O)COc5ccc(C)c(C)c5)CC4)nc3s2)cc1`, the activation was inactive: -7.97%.

`COc1ccc(Br)cc1C1SCC(=O)Nc2c1c(C)nn2-c1ccccc1C` (centres undefined): the activation is inactive: -11.9%.

With `CCCC1=Nc2cc(C(=O)NCCCN(CC)CC)ccc2Sc2ccccc21`, the activation was inactive: 15.4%.
